These are yes or no findings as the source states them, for the method shown. For some assays here: In cells and extracts the contact can be indirect. Some binding calls cover weakened binding; strength is not graded here. For some assays here: Where a sequence is shown, tags or fusion partners need not be part of it. One block for each molecule: values may come before it.
Experiments:
[1] = biological target: T1, Full-length human RAP1 fused to the Gal4p DNA binding domain (pDBLeu/RAP1) (human) (UniProt Q9NYB0); test: two-hybrid; ProQuest Two-Hybrid System, MaV203 cells; GAL4DBD-RAP1 bait against a human fetal brain cDNA library in pPC86; selection on SC-leu-trp-his with 3AT and blue colour with X-gal; library plasmids retested with the bait
T1 sequence: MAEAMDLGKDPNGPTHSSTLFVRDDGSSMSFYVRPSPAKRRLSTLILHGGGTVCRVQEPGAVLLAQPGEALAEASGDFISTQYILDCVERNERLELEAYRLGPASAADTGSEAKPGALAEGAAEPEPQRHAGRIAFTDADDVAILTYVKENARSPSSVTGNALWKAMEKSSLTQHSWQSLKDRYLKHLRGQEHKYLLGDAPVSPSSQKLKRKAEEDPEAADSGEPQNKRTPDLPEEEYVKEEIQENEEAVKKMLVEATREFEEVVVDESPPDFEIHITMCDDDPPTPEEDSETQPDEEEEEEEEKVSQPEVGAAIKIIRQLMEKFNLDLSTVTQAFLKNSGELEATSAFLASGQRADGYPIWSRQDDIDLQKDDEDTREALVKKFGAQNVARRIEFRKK

GST-RAP1 (human) [2] = biological target: T2, GST-RAP1 (human) (UniProt Q9NYB0); test: pull-down; Fig. 2a, one added protein: purified MBP-PS1(1–85) or His6-GFAP protein added to glutathione beads prebound with GST-RAP1 (from lysate); proteins from BL21 and BL21(DE3); blot for the tags; both purified
T2 sequence: T1 sequence

GST-RAP1 (human) [3] = biological target: T2, GST-RAP1 (human); test: condition: only with MBP-PS1(1–85) in the same sample (Fig. 2a); pull-down; Fig. 2a, lanes 8 and 10: glutathione beads prebound with GST-RAP1 incubated with a purified His6-GFAP protein and purified MBP-PS1(1–85) together; both purified
GST-RAP1 (human) [4] = biological target: T2, GST-RAP1 (human); test: pull-down; Fig. 2b and Fig. 2c lanes 1, 4, 6: GST- and His6-tagged proteins expressed together in HMS174(DE3), lysed with 1% NP-40; lysates mixed with glutathione beads; blot for the tags
GST-RAP1 (human) [5] = biological target: T2, GST-RAP1 (human); test: pull-down; Fig. 2c, samples with three proteins: the co-expressed GST- and His6-tagged pair (HMS174(DE3)) on glutathione beads in the presence of a third protein that was expressed separately and added
GST-RAP1 (human) [6] = biological target: T2, GST-RAP1 (human); test: pull-down; Fig. 2a, lanes 8 and 10: glutathione beads prebound with GST-RAP1 incubated with a purified His6-GFAP protein and purified MBP-PS1(1–85) together; both purified
GST-GFAPɛ (human) = GST-GFAPɛ (human) (UniProt P14136); test: pull-down; Fig. 2c lane 8: MBP-PS1(1–85) expressed separately in HMS174(DE3), added to GST-GFAPɛ on glutathione beads
[7] = biological target: GAL4DBD-GFAPα CT fusion (GFAPα 204–432) (human) (UniProt P14136); test: two-hybrid; Matchmaker Gold, Y2H Gold cells; GAL4DBD-GFAP fusions with GAL4AD-RAP1; growth on SC-leu-trp-his-ade, 3 days at 30°C, three independent transformants
[8] = biological target: GAL4DBD-GFAPɛ CT fusion (GFAPɛ 204–431) (human) (UniProt P14136); test: as above

Molecule: His6-GFAPɛ (amino acids 204—end) (from UniProt P14136-3 204-431) (domain or fragment)
- binding (GST-RAP1 (human) [2]): binds
- binding (GST-RAP1 (human) [3]): no binding
- binding (GST-RAP1 (human) [4]): binds
- binding (GST-RAP1 (human) [5]): binds

Molecule: MBP-PS1(1–85) (from UniProt P49768 1-85) (domain or fragment)
- binding (GST-GFAPɛ (human)): binds

B1: GAL4AD-RAP1 fusion (protein, UniProt Q9NYB0 1-399)
chain: T1 sequence
- binding [7]: no binding
- binding [8]: binds

The remaining lines, values ahead:

- binding [1]: binds
Molecule: GFAPɛ fragment amino acids 204–431, Gal4p activation domain fusion from the human fetal brain cDNA library (from UniProt P14136-3 204-431) (domain or fragment)

- binding (GST-RAP1 (human) [2]): no binding
- binding (GST-RAP1 (human) [4]): no binding
- binding (GST-RAP1 (human) [6]): no binding
Molecule: His6-GFAPα (amino acids 204—end) (from UniProt P14136-1 204-432) (domain or fragment)
